# Hit rate of the full screen: of about 410,000 compounds, about 6,400 (1.6%) were called active. Inconclusive results, whose numbers are uncertain, are shown with a selection of clear calls. The call rests on the fitted dose curve; in most records, active means well fitted inhibition curve with a large enough effect; inconclusive means small, poorly fitted or top-dose-only effect; inactive means no such curve, though single readings can be large or run the other way. No potency is given beside an inconclusive call; the fits are too rough.
# Target: Glucagon-like peptide 1 receptor (Homo sapiens) (UniProt P43220)
# UniProt P43220, sequence (P43220 whole entry, looked up): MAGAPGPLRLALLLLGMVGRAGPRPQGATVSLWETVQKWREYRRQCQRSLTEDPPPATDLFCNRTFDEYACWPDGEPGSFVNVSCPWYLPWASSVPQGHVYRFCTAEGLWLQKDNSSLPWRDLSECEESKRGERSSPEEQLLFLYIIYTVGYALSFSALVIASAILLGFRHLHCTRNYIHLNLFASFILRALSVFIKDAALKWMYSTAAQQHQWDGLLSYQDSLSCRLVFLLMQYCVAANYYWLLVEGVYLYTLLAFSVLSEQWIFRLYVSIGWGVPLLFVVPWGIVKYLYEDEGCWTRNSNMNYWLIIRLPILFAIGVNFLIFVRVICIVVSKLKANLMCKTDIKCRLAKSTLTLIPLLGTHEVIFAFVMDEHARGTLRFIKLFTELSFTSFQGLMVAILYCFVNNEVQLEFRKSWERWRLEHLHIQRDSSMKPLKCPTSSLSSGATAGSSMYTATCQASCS
# Assay: qHTS of GLP-1 Receptor Inverse Agonists (Inhibition Mode); further: nearly all actives have a fitted effect of over 55% in size
# Conditions: HEK293 GLP-1R CRE-luciferase, luminescence, 24 h, GLP-1R form is constitutively active; series mostly up to 38.3 µM
# Method in brief: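 Readout was luciferase luminescence, measured 12 min after detection reagent at room temperature. Beforehand, GLP-1R reporter HEK293 cells had sat 12 h, then received compounds for 24 hr at 37 deg C.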
# Potency means the concentration at half of the fitted maximal effect; tags describe the fitted curve by direction and shape.
row,Structure (SMILES),Potency
1,COc1ccc(-c2cc(C(=O)Nc3cccc(S(=O)(=O)NCc4ccco4)c3)c3ccccc3n2)cc1OC,"inconclusive [inhibitor, partial curve]"
2,Cc1ccc(C(=O)CN(C(=O)c2ccc(Cl)cc2)N2C(=O)CCC2=O)cc1,"inconclusive [inhibitor, partial curve, poor fit]"
3,Fc1ccc(-c2nnc(-c3ccc4ccccc4c3)o2)cc1,"inconclusive [inhibitor, single point]"
4,C/C(CCc1ccco1)=N\NC(=O)CNc1cccc2ccccc12,"inconclusive [inhibitor, single point]"
5,Cc1cc2c(cc(C(=O)OCC(=O)NCc3cccs3)n2C(C)C)o1,"inconclusive [inhibitor, full curve, poor fit]"
6,O=C1CC2(CCN(C(=O)c3ccc(F)c(F)c3)CC2)Oc2ccccc21,"inconclusive [inhibitor, partial curve, poor fit]"
7,CNC(=O)C1CCN(Cc2cc3ccccc3n2Cc2cccc(C)c2)CC1,"inconclusive [inhibitor, single point]"
8,Cc1cc(C)c(C(=O)NC2CCCc3c2cnn3-c2cccc(C)c2C)o1 (configuration not stated),"inconclusive [inhibitor, full curve, poor fit]"
9,CN1CCN(c2ccc3c(c2)OC[C@@H](Cc2ccccc2)NS3(=O)=O)CC1,"inconclusive [inhibitor, partial curve, poor fit]"
10,O=C(Nc1ccc(O)cc1)/C(=C\C=C\c1ccccc1)NC(=O)c1ccccc1,"inconclusive [inhibitor, single point]"
11,COc1ccc(OC)c(S(=O)(=O)N2CCN(Cc3ccccc3)CC2)c1,inactive
12,CNC(=S)N(CCc1c(C)[nH]c2ccc(C)cc12)Cc1ccco1,active: 10 µM
13,CCc1cc2ccccc2nc1SCC(=O)NC1CCCC1,active: 10 µM
14,CC(=O)Nc1ccc(S(=O)(=O)NCc2cn3c(C)csc3n2)cc1,inactive
15,COCCN1C(=O)C(CC(=O)Nc2ccccc2)SC1=Nc1ccc(OC)cc1 (configuration not stated),"inconclusive [inhibitor, single point]"
16,Cc1ccccc1OCC(=O)Nc1cccc(C(=O)O)c1,"inconclusive [inhibitor, full curve, poor fit]"
17,COCc1cc(C)nc(SCc2ccc([N+](=O)[O-])cc2)c1C#N,"inconclusive [inhibitor, single point]"
18,COc1ccc(CNC(=O)CCSCc2cccc(Cl)c2)c(OC)c1,"inconclusive [inhibitor, partial curve, poor fit]"
19,CC(=O)CCC(=O)NC1CCCc2c1cnn2-c1ccc(C(C)(C)C)cc1 (configuration not stated),"inconclusive [inhibitor, single point]"
20,C=CCSc1nc(Oc2ccccc2)c2sccc2n1,"inconclusive [inhibitor, single point]"
21,Cc1ccccc1-c1nc(CS(=O)(=O)CC(=O)NCc2ccccc2)c(C)o1,"inconclusive [inhibitor, single point]"

row,Structure (SMILES),Potency
1,Cc1cc(OCC(=O)Nc2ccc(S(=O)(=O)N3CCN(C)CC3)cc2)ccc1Br,"inconclusive [inhibitor, single point]"
2,O=C(NCCCc1nc2ccccc2n1Cc1ccccc1)C1CCCCC1,"inconclusive [inhibitor, partial curve, poor fit]"
3,Cc1ccc(-c2csc3ncnc(SCC(=O)c4ccc5c(c4)OCCO5)c23)cc1,inactive
4,Clc1ccc(-c2nc(/C=N/N3CCOCC3)c3ccccn23)cc1,"inconclusive [inhibitor, partial curve, poor fit]"
5,COc1ccc(OCc2cc(C(=O)N(Cc3nccn3C)C(C)C)no2)c2ccccc12,"inconclusive [inhibitor, single point]"
6,CCc1cc(-c2n[nH]c(=S)n2Cc2ccccc2)cs1,"inconclusive [inhibitor, partial curve, poor fit]"
7,O=C(COC(=O)c1ccc(F)cc1Cl)Nc1cccc(S(=O)(=O)N2CCOCC2)c1,"inconclusive [inhibitor, single point]"
8,CC1=C(C(=O)OCc2ccccc2)C(c2cccs2)N2C(=O)CCSC2=N1 (configuration not stated),active: 11.2 µM
9,CCN1CCOC(=O)C1CC(=O)Nc1ccc(C(C)=O)cc1 (configuration not stated),inactive
10,C[C@@H]1CN([C@H](C)CO)C(=O)c2cc(Br)cnc2O[C@@H]1CN(C)Cc1ccc(-c2ccccc2)cc1,"inconclusive [inhibitor, single point]"
11,Cc1ccccc1-c1ccc(CN2C(C)C(=O)N(Cc3cn(Cc4ccco4)nn3)CCS2(=O)=O)cc1 (configuration not stated),"inconclusive [inhibitor, single point]"
12,O=Nc1c(O)n(Cc2cccc(Cl)c2)c2ccccc12,"inconclusive [inhibitor, partial curve, poor fit]"
13,Cc1ccc(C)c(Cn2c(=O)n(Cc3ccco3)c(=O)c3oc4ccccc4c32)c1,inactive
14,CCO[C@H]1OC(C(=O)NCc2nc3ccccc3[nH]2)=C[C@@H](C2CCCCC2)[C@@H]1CCCO,active: 10 µM
15,C#CCOCCOCCOCCNc1nc(N2CCN(C(=O)[C@H]([C@@H](C)CC)n3cc([C@@H](N)CC(C)C)nn3)CC2)nc(N2CCN(C(=O)[C@H](Cc3ccc(O)cc3)n3cc([C@@H](N)C(C)CC)nn3)CC2)n1 (some centres not stated),inactive
16,CC(C)c1ccc(OCC(O)CN2CCN(c3ccccn3)CC2)cc1 (configuration not stated),"inconclusive [inhibitor, partial curve, poor fit]"
17,CCn1c(=N)n(CC(=O)C(C)(C)C)c2ccccc21,"inconclusive [inhibitor, partial curve, poor fit]"
18,COc1ccc(OC)c(CNC(=O)C2CCCN(S(=O)(=O)N3CC(C)CC(C)C3)C2)c1 (configuration not stated),"inconclusive [inhibitor, partial curve]"
19,Cc1c(N2C(=O)/C(=C/c3ccccc3)SC2=S)c(=O)n(-c2ccccc2)n1C,"inconclusive [inhibitor, partial curve, poor fit]"
20,CC(C)OC(=O)c1cccc(C(=O)Nc2cccc(NC(=O)c3cccc(C(=O)OC(C)C)n3)n2)n1,inactive
21,COc1ccc(C2(c3ccc(OC)cc3)NC(=O)N(CC(=O)Nc3ccccc3)C2=O)cc1,"inconclusive [inhibitor, single point]"

row,Structure (SMILES),Potency
1,CCC(C(=O)Nc1ccccc1F)n1nc(C)c2c(C)n(-c3ccccc3)nc2c1=O (configuration not stated),"inconclusive [inhibitor, partial curve, poor fit]"
2,Cc1ccc2cccc(OCc3ccc(Br)cc3)c2n1,"inconclusive [inhibitor, single point]"
3,CC(=O)Nc1ccc(Nc2nc(C)nc3c2nnn3Cc2ccccc2Cl)cc1,"inconclusive [inhibitor, single point]"
4,Cc1cccc(N2CCN(C(=O)CN3C(=O)NC4(CCCCCC4)C3=O)CC2)c1C,"inconclusive [inhibitor, single point]"
5,Cc1nc(C)c(-c2csc(NCCc3ccccc3)n2)s1,"inconclusive [inhibitor, single point]"
6,CN(C)CCCN(C(=O)c1ccco1)c1nc2ccc(Cl)cc2s1,"inconclusive [inhibitor, partial curve, poor fit]"
7,CCc1ccccc1Nc1ncnc2c1cnn2-c1ccc(Cl)cc1,"inconclusive [inhibitor, single point]"
8,C=CCc1ccc(OCCCOc2ccc(C)c(C)c2)c(OC)c1,"inconclusive [inhibitor, single point]"
9,COC(=O)c1ccc(Cn2c(SCC(=O)NCc3ccccc3)nc3ccccc32)cc1,"inconclusive [inhibitor, single point]"
10,Cc1ccc(NS(=O)(=O)c2cccc(C(=O)NCCCn3ccnc3)c2)cc1,"inconclusive [inhibitor, single point]"
11,COc1ccc(/C=N/Nc2ccc([N+](=O)[O-])cc2S(=O)(=O)N2CCN(C)CC2)cc1,"inconclusive [inhibitor, partial curve, poor fit]"
12,COC(=O)C(Cc1ccc(O)cc1)NC(=O)NC12CC3CC(CC(C3)C1)C2 (configuration not stated),"inconclusive [inhibitor, partial curve, poor fit]"
13,CC(=O)Nc1ccc(OCc2cn(CC(=O)c3ccc(O)cc3)nn2)cc1,inactive
14,COc1ccccc1OCC(=O)NNC(=O)Nc1ccc(Cl)cc1,"inconclusive [inhibitor, full curve]"
15,N#Cc1c(N)[nH]c(C(=O)c2ccccc2)c1-c1ccc(Cl)cc1,inactive
16,O=C(CNc1ccc(Oc2ccccc2)cc1)N1CCOCC1,"inconclusive [inhibitor, partial curve, poor fit]"
17,CCOc1ccc(/C=N/Nc2ccccn2)cc1OC,inactive
18,COc1ccc([C@H]2CC(=O)C=C(c3ccnc4ccc(Cl)cc34)C2)cc1,"inconclusive [inhibitor, partial curve, poor fit]"
19,O=C(Nc1cccc(Cc2ccccc2)c1)Nc1ccc2nc([C@@H]3O[C@H](CO)[C@@H](O)[C@H](O)[C@H]3O)[nH]c2c1,inactive
20,CN(C)c1ccc(C(=O)N/N=C/c2ccccn2)cc1,"inconclusive [inhibitor, single point]"
